The other results are listed elsewhere or left out. At the low end of the ranking the order means little. Measured with an extract: partners may take part in the binding.

The target of this experiment is T1, HNF4alpha8 (COS-7 nuclear extract) (UniProt P41235-5).
T1 sequence: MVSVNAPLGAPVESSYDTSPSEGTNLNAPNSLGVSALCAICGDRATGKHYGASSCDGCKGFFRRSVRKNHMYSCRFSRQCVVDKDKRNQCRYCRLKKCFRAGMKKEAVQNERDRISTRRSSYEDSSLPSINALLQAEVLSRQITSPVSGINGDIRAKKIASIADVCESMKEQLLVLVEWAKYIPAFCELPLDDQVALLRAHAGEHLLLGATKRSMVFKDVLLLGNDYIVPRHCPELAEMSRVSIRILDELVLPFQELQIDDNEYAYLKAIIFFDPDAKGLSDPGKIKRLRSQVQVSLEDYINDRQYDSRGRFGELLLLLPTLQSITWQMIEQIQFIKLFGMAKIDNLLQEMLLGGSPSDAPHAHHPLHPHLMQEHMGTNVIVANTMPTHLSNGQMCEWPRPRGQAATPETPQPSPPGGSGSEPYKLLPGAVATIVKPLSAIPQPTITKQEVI
As to the kind of experiment: protein-binding microarray. The note with it: COS-7 nuclear extract on double-stranded Agilent 4x180k PBM; binding buffer, salt, pH and temperature not given; high values mean tight binding; double strand, one strand shown; sequences stand for … in …GCCTAGGGAGATTAGAGTATCGGTCGA
Regarding GGGGGAGGGAGATAGAGAAAGAAAAAGTAC, the binding signal (log2 normalized intensity) is -1.16. As for CTCTTGCTTCACAGCCCTCCAACTATGCTA, the figure is -0.519.

Consider CTCCTAAAGGCAGCCCCTTATCAGGAGAGG, for which the binding signal (log2 normalized intensity) was -1.17. In the case of TAGCCTTATCTCAGATGAGACTTTGGACTT it was 8.64; in that of ATGACCTTTACCCCCATTTGGTAATGGGCC, 5.46.

Consider TTTATAGGCTAGAATGGAAACCAATAACTG, for which the binding signal (log2 normalized intensity) is -1.35. As for ATTATCTGCTTTTATGACCTTTGACTGCAG, the figure is 7.32; as for GAGGTGGAAGTGGCAGATTAGAGACCTCTA, -0.0165; as for ATTGAAGTTACGTATTTTTGCCAAGGATAT, 0.78.

As for ATGGAGATGAGAAACTTATTGTGAACTGGA, the binding signal (log2 normalized intensity) was found to be 1.08. In the case of ACCAGGGCAGGGAAAGGGGGTTTGCAACCT it was -1.37; in that of AGCCATTTATCAGGGTAATGAGTGCTATCC, 0.957.

Take TCCTACCTTTCCCCTAAAGGAGGCAAGGTC: the binding signal (log2 normalized intensity) came out at 0.783. As for GTTGAGAACTGAGTTTAGAATTTGAACTAT, the figure is 3.68. In the case of TGGCATACTACAGAAATCTTTAAGTGCATT it was 0.375; in that of TGTGGAGGTCTACCAGGAATATTGCCCCCT, 5.57.

In the case of TACCAAAGCCATGGCTCCAACCCGATTCTG, the binding signal (log2 normalized intensity) was -1.36.

ACTACATTTCCAAGACCTCTTTGCGGATAG: the binding signal (log2 normalized intensity) is -0.337. For the sequence CCCCACCCTCCCACGCACTCGCCTGACTCC, the binding signal (log2 normalized intensity) is 3.85. In the case of GCAAGCTCCTGGTTGGGGCCTCCCTCCGTG it was -1.42; in that of CTCATTAATCATCCGTCACCCAGACAGACT, -1.18. Turning to GTAAGGGGAGGAGCTGAAACAGTCTGATTC, the binding signal (log2 normalized intensity) is -1.33. In the case of ATCCACCCATCCAAAGGTCAGCAATCTCAA, the binding signal (log2 normalized intensity) came to 3.45. As for CATCACCTAACTTGTGGCTGGGTGATCTGG, the figure is 1.34; as for TCTCTCATGCTATGCTCTCTCTCCACCTGG, -0.806; as for CTCTTTTTTCTTGTTGACTTTCCTATTGTC, 1.88.

Take AGAGAGAGAGAATGACCCTTGCTTGACCCA: the binding signal (log2 normalized intensity) worked out at 4.02.

In the case of AGGCAAACATAAACTCAGAGTCAAATCCCC, the binding signal (log2 normalized intensity) is 0.536. As for CCCCTAAAGGAGGCAAGGTCCAAACTTCTC, the figure is 2.81; as for AGAAGGGGTCAGGTAAGACAGCCTCCTGAA, -1.25. As for GACTTGAAGCCAGACTCTGCCATTTCCCAG, the figure is -1.36; as for CCAGGGACTTACTCAACTAGCTCCATGTGA, -1.31. As for GATGCATGATTGCTCTCTACTTGGTGGGAG, the figure is 0.236; as for AAAAACATGGGTCTCTTCCTCAGTTTGTTC, 1.54; as for GCTAGCATTGCTCAGACAGGGCAAAGGTGC, 3.57.

Turning to CTAAGAGCCGCAGAGCTAATGTTCAAATCC, the binding signal (log2 normalized intensity) was -1.27. In the case of GCTTTGGACTTTGGGCTGTGTTTTGCCCCT it was 5.58. In the case of ATAAGACACATTCCATGCTTATCAGTGTAC it was 0.903; in that of CTCAAAGGAGGTCAGAACTGTGGACTCGCT, 1.89. In the case of CTTGTTTGTCAAGTTTGGTAAGCAGACCCC it was 2.66; in that of GGGTCCACATTCCAGGAATATTCAGATATT, -0.229; in that of ATTCCCTTTCTCCTCCCCTCCCCTCCCCCC, 6.78. On to CGACTTGCCTTGTGTACTCTATCCAGTAGA, for which the binding signal (log2 normalized intensity) is 1.14. In the case of GGCCAGCGCCAGGCTGGGGGCAGAGTTCAC it was 5.83; in that of GACCTCCTGTCTCATCCTGTGACCAAGAAT, 0.429.

Consider CTCAGTCATACCACATGGATGGATTCAGAT, for which the binding signal (log2 normalized intensity) was 0.256. As for GGCCCAGGAAGCTCCAGCGGGGTTTGAATC, the binding signal (log2 normalized intensity) is -1.32.

As to TCTTCCATCGGACTTTGATCTGCCACATAC, the binding signal (log2 normalized intensity) came to 6.72. As for GTGTTTGTCCTTTGTTGCAATGCTGGAACA, the figure is 1.28; as for TGCTGGAATGAGGGAGGCAGCCACCTAGGC, -1.31; as for AAGCTCTGGAGTCCAAAGGTCAGCAAGCCT, 8.14. As for AATGTATGGGCTATTTATGACGGTGTATGC, the figure is 0.766; as for TCAAAGCATTCCACATTCTCCACTGGGAAG, -1.34.

As for TCTGCAGTTCTGGGCCAAAGGTCATACCTG, the binding signal (log2 normalized intensity) was 6.41. For CTACATTCAAATCCTTGCTCTGTGGTTTAG, the binding signal (log2 normalized intensity) stood at 0.965. In the case of AGGCCTATGGCGAAAAAGGAAATATCTTCC it was -1.19; in that of CCACTGACAGGAGGTATGCCAGGAATGCTG, -1.35; in that of TTGTTTCATTGCACAGTTACTCCACAACTT, -0.186. As for TGTGCAGCTTTGTGTAAAACTTCAAAGAAG, the figure is 0.796; as for GCACAGTTACTCCACAACTTGTTCTATTGT, 0.623; as for TGAGGCAAAATTCCTCGCTAGCTGTCAATC, -1.42. In the case of TCAGAGCTTGAAAAGTCTTTCTGCCAAAGT it was 0.513. Take CCGGTTCCTCTGGATACCCTTCCCCCCAAG: the binding signal (log2 normalized intensity) came to 4.89.

Turning to TTTGGCTCTAGAGGAGTCCCCTTAAAATTC, the binding signal (log2 normalized intensity) turned out to be 0.535.

Regarding CTGAGGTGGAAGGATCACCTGAGTCCAGAG, the binding signal (log2 normalized intensity) worked out at 0.477. On to ATGTCTAACCTCCTGGGAATGCAGTCCAGT, for which the binding signal (log2 normalized intensity) was 0.93. As for CTTTAGAGAAACGCACTCGCCTCTCCTGTT, the figure is -0.995; as for TAGATAAACTACTTTATATTCCTTTGTATC, 1.35; as for TTATATCCCCTGCCTGGGTCCTGGGAGCAA, 0.574. In the case of GGTATGTATGGAATGTCACTTTCTGACAGG it was 1.19; in that of CAGAAAGTCCGGGGGCCAGTTCACTCAGTC, -1.17. As for TGGGTGGAAGGAAAAGAGGAAAACCAGCTC, the binding signal (log2 normalized intensity) is -1.39.

(Values after article PMC10726135.)
